Experimental data: the BET-seq Pho4 binding data (Le et al. 2018)
The list shows a part of the results. The energies were worked out here from pooled read counts, against the library average; single values are noisy.

Target: T1, Pho4 (S. cerevisiae) (UniProt P07270)
T1 sequence: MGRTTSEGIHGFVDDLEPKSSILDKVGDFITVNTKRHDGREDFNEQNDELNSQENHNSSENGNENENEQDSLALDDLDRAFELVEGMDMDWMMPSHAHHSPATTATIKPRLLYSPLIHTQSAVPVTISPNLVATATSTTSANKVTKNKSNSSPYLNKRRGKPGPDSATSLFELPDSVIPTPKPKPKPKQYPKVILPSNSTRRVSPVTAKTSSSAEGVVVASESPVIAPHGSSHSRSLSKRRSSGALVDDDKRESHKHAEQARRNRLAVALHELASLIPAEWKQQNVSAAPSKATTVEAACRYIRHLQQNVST
Test: relative binding free energy (BET-seq); higher = weaker binding
Details: reference: library average

Row | Sequence | relative binding free energy [kcal/mol]
1 | GTACGCACGTGGTTTT | 0.03
2 | GGTGTCACGTGGCGAT | 0.09
3 | TGGGTCACGTGACCTG | 0.23
4 | CTAATCACGTGTGGTG | -0.02
5 | GAGTGCACGTGGTTCG | 0
6 | ATAGACACGTGTGGTA | 0.01
7 | CGAGTCACGTGAATGT | 0.27
8 | ATGTGCACGTGCGGTC | -0.02
9 | CGAATCACGTGGTATT | 0.17
10 | GGGATCACGTGTAGCG | 0.11
11 | TTATGCACGTGCTGCG | -0.04
12 | GGGATCACGTGATGGT | 0.27
13 | AAGAGCACGTGATAGT | 0.17
14 | AAGTTCACGTGGATAG | 0.21
15 | TGGTGCACGTGGGCTT | -0.11
16 | AACTGCACGTGAGGGG | 0.31
17 | ACTCGCACGTGGGGTG | -0.41
18 | GTCAGCACGTGACGGG | 0.23
19 | CATCTCACGTGGTGGT | 0.16
20 | CGGGTCACGTGATTTT | 0.15
21 | GATGGCACGTGAGGAG | 0.06

Row | Sequence | relative binding free energy [kcal/mol]
22 | CGAGGCACGTGTCGGT | -0.02
23 | GGGGTCACGTGAGCTT | 0.42
24 | GTGGACACGTGGGTAA | -0.11
25 | TAAGGCACGTGGTGTG | -0.18
26 | GGATGCACGTGATATT | 0.25
27 | TTGAGCACGTGTTCTT | 0
28 | CTGGTCACGTGGTTTC | 0.16
29 | TAGTTCACGTGCTAGG | 0.24
30 | AATGTCACGTGGGTTG | -0.02
31 | CTGAGCACGTGGTGGA | -0.1
32 | AGTGACACGTGATTCG | 0.14
33 | ATAGGCACGTGTTACG | -0.14
34 | ACGGTCACGTGGGTGA | -0.09
35 | TTAGCCACGTGTGTGT | -0.07
36 | GGCGCCACGTGGGGCT | -0.18
37 | GCTTACACGTGTGGGC | 0.3
38 | CTATGCACGTGTGGTT | 0.12
39 | GGTTGCACGTGGGGAA | 0.01
40 | GATTTCACGTGTGTGT | 0.38
41 | TGTTTCACGTGTTTAC | 0.38
42 | CGTGTCACGTGGGCAG | -0.07

Row | Sequence | relative binding free energy [kcal/mol]
43 | GGGGGCACGTGGTTAG | -0.09
44 | TTAAACACGTGGGATA | -0.02
45 | GAGTGCACGTGGGCCT | -0.13
46 | CGGTGCACGTGCAGTT | -0.06
47 | ACGGGCACGTGTGGCT | -0.14
48 | ATTGTCACGTGCTTAG | 0.01
49 | ATTGGCACGTGTGCGA | -0.16
50 | AATAGCACGTGTTTAT | -0.01
51 | ATTTACACGTGGACTT | 0.17
52 | CCTGTCACGTGAGGGT | 0.22
53 | AGTTGCACGTGATTAT | 0
54 | TGCGGCACGTGCTTGG | -0.15
55 | AGTGACACGTGGGGGG | -0.14
56 | TTAGCCACGTGGAGTT | -0.14
57 | TGTGCCACGTGGCGGG | -0.22
58 | TGGGACACGTGGGGCT | -0.11
59 | TTCGGCACGTGAGAGG | 0.2
60 | GAAGTCACGTGGTGCG | 0.01
61 | TATTGCACGTGGCCTG | -0.1
62 | ACGGTCACGTGATTGT | 0.21
63 | GTTCTCACGTGTGAGA | 0.36
